Laboratory results published in PubChem BioAssay (Tox21).
“And” between values parts separate entries of the source, which are not always exact repeats. Equal entries are not always repeated. This list was built around the results that the source calls inconclusive (neither active nor inactive); the mix of calls is not that of the screen. For some assays here: Potencies of inconclusive entries are doubtful fits and often do not repeat. Some structures have more than one record in an assay (separate samples or runs), and their calls can disagree. The source made the active and inactive calls. Unless noted, the call rests on the fitted dose curve; in most records, active means well fitted curve in the direction sought with a large enough effect in the repeat runs; inconclusive means weak or mixed curves; inactive means no such curve, though single readings can be large; an effect the other way counts as inactive or inconclusive.

Columns and labels:
[1] = qHTS assay for small molecule agonists of the p53 signaling pathway (AID 651631; calls by dose curve; further: nearly all actives have a fitted effect of over 15% in size; further: potency means the concentration at half of the fitted maximal effect; on activation: on the % scale 0 is the no-effect control and ±100 the full control effect); conditions: HCT-116 p53RE-bla reporter, beta-lactamase FRET ratio, 16 h; activation: at 73.3 µM (top of the series) unless noted
In short: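 HCT-116 p53RE-bla reporter line, 16 h compound treatment at 37 °C, then fluorescence after 2 h with B/G FRET substrate.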

[2] = qHTS assay for small molecule disruptors of the mitochondrial membrane potential (AID 720635); conditions: HepG2 mitochondrial membrane potential, Mito-MPS dye ratio; ratio activity, negative = MMP loss: at 83.2 µM (top of the series) unless noted; further: potency means the concentration at half of the fitted maximal effect; on ratio activity, negative = MMP loss: on the % scale 0 is the no-effect control and ±100 the full control effect
In short: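 Mitochondrial membrane potential tracked with Mito-MPS dye, red aggregates (ex 540/em 590 nm) against green monomers (ex 490/em 535 nm). Compound treatment 1 hr at 37C, dye 30 min in HepG2.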

[3] = qHTS assay for identifying genotoxic compounds that show differential cytotoxicity against isogenic chicken DT40 cell lines with known DNA damage response pathways - Rad54/Ku70 mutant cell line (AID 743015); conditions: DT40 Rad54/Ku70 mutant viability, CellTiter-Glo, 40 h; activity change, negative = cytotoxicity: at 66.8 µM (top of the series); further: nearly all actives have a fitted effect of over 60% in size; further: potency means the concentration at half of the fitted maximal effect; on activity change, negative = cytotoxicity: on the % scale 0 is the no-effect control and ±100 the full control effect
[4] = qHTS assay to identify small molecule antagonists of the estrogen receptor alpha (ER-alpha) signaling pathway - cell viability counter screen (AID 743074; calls by dose curve;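 further: HEK293 cells carrying ER-alpha-UAS-bla reporter stimulated with 17beta-estradiol; nearly all actives have a fitted effect of over 45% in size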; further: potency means the concentration at half of the fitted maximal effect)
[5] = qHTS assay for identifying genotoxic compounds that show differential cytotoxicity against isogenic chicken DT40 cell lines with known DNA damage response pathways - wild type cell line (AID 743012); conditions: DT40 wild type chicken cells viability, CellTiter-Glo, 40 h; activity change, negative = cytotoxicity: at 68.4 µM (top of the series) unless noted; further: nearly all actives have a fitted effect of over 60% in size; further: potency means the concentration at half of the fitted maximal effect
In short: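 Viability by ATP luminescence (CellTiter-Glo, 30 min RT) after 40 h compound treatment at 37 C/5% CO2, using 300 parental DNA repair-proficient DT40 cells per well.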

[6] = qHTS assay to identify small molecule antagonists of the thyroid receptor (TR) signaling pathway - cell viability counter screen (AID 743064); conditions: GH3.TRE-Luc viability, CellTiter-Fluor, 24 h; activity change, negative = cytotoxic: at 70.3 µM (top of the series) unless noted; further: nearly all actives have a fitted effect of over 50% in size; further: potency means the concentration at half of the fitted maximal effect
In short: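 Plate GH3.TRE-Luc cells; incubate 4 h at 37 °C; add compound, then T3 to 1 nM final; incubate 23.5 h; add CellTiter-Fluor; incubate 30 min at 37 °C, 5% CO2; read fluorescence.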

[7] = biological target: Estrogen receptor (Homo sapiens) (UniProt P03372); experiment: qHTS assay to identify small molecule agonists of the estrogen receptor alpha (ER-alpha) signaling pathway using the BG1 cell line (AID 743079); conditions: BG1Luc4E2 cells, ERE-luciferase agonist, 22 h; activation: at 70.3 µM (top of the series) unless noted; further: nearly all actives have a fitted effect of over 20% in size; further: potency means the concentration at half of the fitted maximal effect
Chain of UniProt P03372 (P03372 whole entry, looked up): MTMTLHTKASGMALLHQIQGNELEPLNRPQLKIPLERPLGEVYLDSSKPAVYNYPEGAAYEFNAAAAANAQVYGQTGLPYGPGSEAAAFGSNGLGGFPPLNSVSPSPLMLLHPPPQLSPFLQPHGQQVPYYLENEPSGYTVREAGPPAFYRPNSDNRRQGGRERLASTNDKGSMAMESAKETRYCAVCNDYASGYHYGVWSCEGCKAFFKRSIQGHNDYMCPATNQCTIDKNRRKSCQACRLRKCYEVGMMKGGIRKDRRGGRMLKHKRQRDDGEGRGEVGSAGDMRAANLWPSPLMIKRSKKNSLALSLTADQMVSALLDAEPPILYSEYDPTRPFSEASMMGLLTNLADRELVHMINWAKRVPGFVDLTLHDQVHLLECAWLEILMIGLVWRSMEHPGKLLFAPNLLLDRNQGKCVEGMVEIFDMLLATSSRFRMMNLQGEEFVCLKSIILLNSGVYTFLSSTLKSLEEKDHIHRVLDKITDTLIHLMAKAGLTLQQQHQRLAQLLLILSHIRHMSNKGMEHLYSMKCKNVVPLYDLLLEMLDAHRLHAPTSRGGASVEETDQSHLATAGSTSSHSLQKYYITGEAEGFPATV

[8] = qHTS assay to identify small molecule antagonists of the estrogen receptor alpha (ER-alpha) signaling pathway using the BG1 cell line - cell viability counter screen (AID 743081); conditions: BG1Luc4E2 viability, CellTiter-Fluor, 22 h; activity change, negative = cytotoxicity: at 70.3 µM (top of the series);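 further: compound given together with 17beta-estradiol as the ER stimulus; nearly all actives have a fitted effect of over 45% in size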; further: potency means the concentration at half of the fitted maximal effect
[9] = biological target: Peroxisome proliferator-activated receptor gamma (Homo sapiens) (UniProt P37231); experiment: qHTS assay to identify small molecule antagonists of the peroxisome proliferator-activated receptor gamma (PPARg) signaling pathway (AID 743191; calls by dose curve; further: nearly all actives have a fitted effect of over 30% in size; further: potency means the concentration at half of the fitted maximal effect); conditions: HEK293H PPARg-UAS-bla, beta-lactamase ratio, antagonist, 17 h; ratio activity, negative = inhibition: at 62.6 µM (top of the series) unless noted
Chain of UniProt P37231 (P37231 whole entry, looked up): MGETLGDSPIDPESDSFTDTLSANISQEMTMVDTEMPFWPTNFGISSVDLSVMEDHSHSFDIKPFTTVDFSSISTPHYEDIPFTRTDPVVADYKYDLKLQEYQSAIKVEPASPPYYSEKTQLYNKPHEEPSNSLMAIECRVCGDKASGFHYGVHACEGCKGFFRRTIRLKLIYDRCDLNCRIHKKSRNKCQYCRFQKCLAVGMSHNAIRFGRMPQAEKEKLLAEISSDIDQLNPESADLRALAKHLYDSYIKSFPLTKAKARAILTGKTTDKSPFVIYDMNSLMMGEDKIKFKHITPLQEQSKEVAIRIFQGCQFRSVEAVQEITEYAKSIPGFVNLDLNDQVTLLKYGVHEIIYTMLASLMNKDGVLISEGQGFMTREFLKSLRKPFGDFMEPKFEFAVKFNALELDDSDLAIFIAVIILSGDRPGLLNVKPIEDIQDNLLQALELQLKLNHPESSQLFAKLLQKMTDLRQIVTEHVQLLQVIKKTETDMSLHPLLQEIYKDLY
In short: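 Beta-lactamase reporter under UAS control in HEK293H PPARg-bla cells; compound treatment 17 h at 37C. Read-out: fluorescence intensity after 1 h room-temperature incubation with LiveBLAzer B/G FRET substrate.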

[10] = biological target: Cytochrome P450 2C19 (Homo sapiens) (UniProt P33261); experiment: Cytochrome P450 Family 2 Subfamily C Member 19 (CYP2C19) small molecule antagonists: luciferase reporter qHTS assay (AID 1671197); further: nearly all actives have a fitted effect of over 65% in size; further: potency means the concentration at half of the fitted maximal effect
Chain of UniProt P33261 (P33261 whole entry, looked up): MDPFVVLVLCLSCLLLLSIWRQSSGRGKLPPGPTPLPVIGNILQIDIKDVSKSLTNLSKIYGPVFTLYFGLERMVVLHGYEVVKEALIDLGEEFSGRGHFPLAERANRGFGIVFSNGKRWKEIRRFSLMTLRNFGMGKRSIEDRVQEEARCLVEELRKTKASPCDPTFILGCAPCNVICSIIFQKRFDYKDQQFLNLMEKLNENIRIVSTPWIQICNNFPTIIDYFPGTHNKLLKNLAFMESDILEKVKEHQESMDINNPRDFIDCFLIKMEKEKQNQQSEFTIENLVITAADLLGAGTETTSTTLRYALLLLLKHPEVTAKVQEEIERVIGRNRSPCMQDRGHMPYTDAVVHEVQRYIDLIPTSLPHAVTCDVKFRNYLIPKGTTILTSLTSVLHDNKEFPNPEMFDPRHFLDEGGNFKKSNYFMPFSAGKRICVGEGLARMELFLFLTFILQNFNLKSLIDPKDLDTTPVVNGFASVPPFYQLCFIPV
In short: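 Quantitative high-throughput screen of the Tox21 library using CYP2C19 with proluciferin substrate. Reaction: NADPH regeneration, 37C, 1 h, after 10 min compound preincubation at room temperature. Readout: luminescence.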

[11] = biological target: Cytochrome P450 2C9 (Homo sapiens) (UniProt P11712); experiment: Cytochrome P450 Family 2 Subfamily C Member 9 (CYP2C9) small molecule antagonists: luciferase reporter qHTS assay (AID 1671198); further: nearly all actives have a fitted effect of over 50% in size; further: potency means the concentration at half of the fitted maximal effect
Chain of UniProt P11712 (P11712 whole entry, looked up): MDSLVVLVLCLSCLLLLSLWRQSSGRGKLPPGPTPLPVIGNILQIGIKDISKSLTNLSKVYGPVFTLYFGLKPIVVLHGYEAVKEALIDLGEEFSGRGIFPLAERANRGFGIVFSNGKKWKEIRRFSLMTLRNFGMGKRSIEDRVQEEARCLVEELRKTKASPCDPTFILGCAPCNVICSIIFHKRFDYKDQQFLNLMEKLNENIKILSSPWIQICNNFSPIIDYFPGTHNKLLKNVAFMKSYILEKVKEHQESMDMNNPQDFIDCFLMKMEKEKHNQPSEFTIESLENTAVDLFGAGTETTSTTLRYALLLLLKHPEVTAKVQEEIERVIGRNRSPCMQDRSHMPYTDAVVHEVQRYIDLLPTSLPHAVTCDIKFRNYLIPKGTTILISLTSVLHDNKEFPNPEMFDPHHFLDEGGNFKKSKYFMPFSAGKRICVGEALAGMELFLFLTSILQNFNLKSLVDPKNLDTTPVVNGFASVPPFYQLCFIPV
In short: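 Enzyme-substrate mix preincubated with compound 10 min at room temperature; reaction started with NADPH regeneration solution, 1 h 37C. Luminescent luciferin product read after 20 min detection reagent.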

[12] = biological target: Glucocorticoid receptor (Homo sapiens) (UniProt P04150); experiment: qHTS assay to identify small molecule antagonists of the glucocorticoid receptor (GR) signaling pathway (AID 720692; active means well fitted inhibition curve with a large enough effect in the signal ratio in the repeat runs, not every such curve was filed as active; inconclusive means weak or mixed curves, or effect the other way; inactive means no such curve, though single readings can be large or run the other way; the % refers to the signal ratio; further: potency means the concentration at half of the fitted maximal effect); conditions: GR-bla HeLa, beta-lactamase FRET ratio, dexamethasone-stimulated, 18 h; activity change, negative = inhibition: at 58.5 µM (top of the series) unless noted
Chain of UniProt P04150 (P04150 whole entry, looked up): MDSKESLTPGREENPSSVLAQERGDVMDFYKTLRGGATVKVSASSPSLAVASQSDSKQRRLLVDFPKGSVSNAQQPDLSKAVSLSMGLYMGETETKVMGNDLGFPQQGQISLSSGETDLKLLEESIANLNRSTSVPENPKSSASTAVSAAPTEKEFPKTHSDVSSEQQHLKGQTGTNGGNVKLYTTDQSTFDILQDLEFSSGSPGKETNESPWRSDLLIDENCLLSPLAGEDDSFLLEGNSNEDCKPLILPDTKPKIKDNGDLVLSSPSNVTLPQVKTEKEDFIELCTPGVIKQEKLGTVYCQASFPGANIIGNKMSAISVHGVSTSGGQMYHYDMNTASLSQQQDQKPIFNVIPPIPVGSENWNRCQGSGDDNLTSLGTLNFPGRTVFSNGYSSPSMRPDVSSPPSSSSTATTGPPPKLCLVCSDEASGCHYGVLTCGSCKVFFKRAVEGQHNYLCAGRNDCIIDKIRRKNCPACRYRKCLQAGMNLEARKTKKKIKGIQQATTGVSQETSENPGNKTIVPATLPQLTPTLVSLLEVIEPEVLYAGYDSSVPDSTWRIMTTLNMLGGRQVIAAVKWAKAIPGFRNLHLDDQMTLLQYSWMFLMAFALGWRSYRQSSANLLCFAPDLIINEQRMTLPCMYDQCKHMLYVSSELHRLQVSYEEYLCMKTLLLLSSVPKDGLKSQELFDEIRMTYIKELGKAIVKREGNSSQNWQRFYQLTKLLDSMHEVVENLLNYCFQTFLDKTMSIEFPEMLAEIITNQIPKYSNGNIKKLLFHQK
In short: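 Inhibition of dexamethasone-driven (5 nM final) beta-lactamase expression was measured in GRE-reporter HeLa cells over 18 h at 37C. Fluorescence was read after 2 h with the B/G FRET substrate at room temperature.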

[13] = qHTS assay for small molecule agonists of the antioxidant response element (ARE) signaling pathway (AID 743202; active means well fitted activation curve with a large enough effect in the signal ratio in the repeat runs, not every such curve was filed as active; inconclusive means weak or mixed curves, or effect the other way; inactive means no such curve, though single readings can be large or run the other way; the % refers to the signal ratio; further: potency means the concentration at half of the fitted maximal effect); conditions: HepG2 ARE-bla reporter, beta-lactamase FRET, 16 h; activation: at 73.3 µM (top of the series) unless noted
In short: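 After 16 hours of compound treatment at 37 C, HepG2 cells with a stably integrated ARE-driven beta-lactamase reporter were loaded 2 hours at room temperature with LiveBLAzer B/G FRET substrate and fluorescence intensity measured.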

[14] = biological target: Cytochrome P450 2D6 (Homo sapiens) (UniProt P10635); experiment: Cytochrome P450 Family 2 Subfamily D Member 6 (CYP2D6) small molecule antagonists: luciferase reporter qHTS assay (AID 1671196); further: nearly all actives have a fitted effect of over 50% in size; further: potency means the concentration at half of the fitted maximal effect
Chain of UniProt P10635 (P10635 whole entry, looked up): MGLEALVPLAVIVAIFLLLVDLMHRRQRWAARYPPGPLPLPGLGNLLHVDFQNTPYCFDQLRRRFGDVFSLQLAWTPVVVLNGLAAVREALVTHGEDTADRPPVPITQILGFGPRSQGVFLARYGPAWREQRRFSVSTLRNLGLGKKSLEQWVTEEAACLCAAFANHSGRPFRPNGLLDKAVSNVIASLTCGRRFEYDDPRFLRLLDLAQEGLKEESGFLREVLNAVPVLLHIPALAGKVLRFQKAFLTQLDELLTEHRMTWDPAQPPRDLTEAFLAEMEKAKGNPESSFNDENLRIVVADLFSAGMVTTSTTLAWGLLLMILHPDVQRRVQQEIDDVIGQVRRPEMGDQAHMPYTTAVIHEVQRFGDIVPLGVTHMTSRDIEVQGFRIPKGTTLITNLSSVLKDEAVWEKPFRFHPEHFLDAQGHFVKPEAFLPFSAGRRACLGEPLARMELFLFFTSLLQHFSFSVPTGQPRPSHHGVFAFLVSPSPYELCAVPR
In short: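 CYP2D6 activity was followed as luminescence from its luciferin product after a 1 h NADPH-driven reaction at room temperature. Enzyme-substrate mix and compound were pre-incubated for 10 min, and the signal was read 20 min after adding detection reagent.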

[15] = biological target: Cytochrome P450 1A2 (Homo sapiens) (UniProt P05177); experiment: Cytochrome P450 Family 1 Subfamily A Member 2 (CYP1A2) small molecule antagonists: luciferase reporter qHTS assay (AID 1671199); further: nearly all actives have a fitted effect of over 50% in size; further: potency means the concentration at half of the fitted maximal effect
Chain of UniProt P05177 (P05177 whole entry, looked up): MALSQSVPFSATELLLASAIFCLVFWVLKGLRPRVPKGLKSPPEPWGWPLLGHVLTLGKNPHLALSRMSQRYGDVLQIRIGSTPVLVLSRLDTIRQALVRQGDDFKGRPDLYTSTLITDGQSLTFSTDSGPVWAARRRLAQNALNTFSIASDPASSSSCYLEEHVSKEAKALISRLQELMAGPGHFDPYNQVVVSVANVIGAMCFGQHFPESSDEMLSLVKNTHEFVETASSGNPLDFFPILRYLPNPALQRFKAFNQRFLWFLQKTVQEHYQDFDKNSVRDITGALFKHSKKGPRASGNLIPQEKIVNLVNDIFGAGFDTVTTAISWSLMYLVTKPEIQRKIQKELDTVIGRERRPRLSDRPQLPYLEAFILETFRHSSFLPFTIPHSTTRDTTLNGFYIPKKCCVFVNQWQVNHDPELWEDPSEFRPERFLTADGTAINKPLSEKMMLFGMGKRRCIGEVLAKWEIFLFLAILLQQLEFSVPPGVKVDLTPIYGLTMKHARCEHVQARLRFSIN
In short: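 Luminescence from luciferin formed by CYP1A2 from a proluciferin substrate, read 20 min after detection reagent. Compound was pre-incubated 10 min with enzyme-substrate, and reaction started with NADPH regeneration solution for 1 h at room temperature; furafylline control.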

[16] = qHTS assay to identify small molecule antagonists of the peroxisome proliferator-activated receptor delta (PPARd) signaling pathway - cell viability counter screen (AID 743213); conditions: PPARd-bla HEK293H viability, CellTiter-Glo luminescence, 17 h; viability change, negative = cytotoxic: at 62 µM (top of the series) unless noted
In short: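 Agonist-stimulated (L165041, 300 nM final) HEK293H PPARd UAS-bla cells are exposed to compounds for 17 h at 37 C, and ATP-based luminescence (CellTiter-Glo) from the same wells reports cytotoxicity.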

[17] = qHTS assay to identify small molecule antagonists of the androgen receptor (AR) signaling pathway - cell viability counter screen (AID 743033; further: on the % scale 0 is the no-effect control and ±100 the full control effect; nearly all actives have a fitted effect of over 45% in size)
[18] = biological target: Peroxisome proliferator-activated receptor gamma (Homo sapiens) (UniProt P37231); experiment: qHTS assay to identify small molecule agonists of the peroxisome proliferator-activated receptor gamma (PPARg) signaling pathway (AID 743094; active means well fitted activation curve with a large enough effect in the signal ratio in the repeat runs, not every such curve was filed as active; inconclusive means weak or mixed curves, or effect the other way; inactive means no such curve, though single readings can be large or run the other way; the % refers to the signal ratio; further: on the % scale 0 is the no-effect control and ±100 the full control effect); conditions: HEK293H PPARg-UAS-bla, beta-lactamase FRET ratio, 17 h; activation: at 57 µM (top of the series) unless noted
In short: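 Agonist activity was taken from a beta-lactamase reporter (FRET substrate, 1 h at room temperature) in HEK293H cells carrying a PPARg UAS-bla construct. Compounds in DMSO were incubated 17 h at 37C after a 5 h cell pre-incubation.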
Tags describe the fitted curve by direction and shape or compound fluorescence and quenching.

O=C(O)/C=C/C(=O)O
Potency [1]: inactive | Potency [2]: inactive | Potency [3]: inactive | Potency [4]: inconclusive: 21.9 µM [cytotoxic, full curve, poor fit]

CC(O)CN1CCN(CC(=O)[O-])CCN(CC(=O)[O-])CCN(CC(=O)[O-])CC1.[Gd+3] (stereo unspecified)
Potency [5]: inactive | Potency [6]: inconclusive: 1.19 µM [rising, full curve, poor fit] | Potency [4]: active: 21.3 µM | Potency [7]: inactive and active: 5.31 µM | Potency [8]: inconclusive: 33.5 µM [rising, single point] | ratio activity, negative = inhibition [9]: inconclusive: 15.6% | Potency [10]: inconclusive: 8.71 µM [inhibitor, partial curve, poor fit] | Potency [11]: inconclusive: 9.77 µM [inhibitor, full curve]

CCc1cc2c(s1)-n1c(C)nnc1CN=C2c1ccccc1Cl
Potency [2]: inconclusive: 11.9 µM [activator, partial curve] | Potency [12]: active: 19 µM | Potency [5]: inconclusive: 33.5 µM [cytotoxic, single point] | Potency [3]: inconclusive: 33.5 µM [cytotoxic, single point] | Potency [4]: inactive | Potency [7]: inconclusive: 11.9 µM [inhibitor, partial curve] | Potency [8]: inconclusive: 13.3 µM [cytotoxic, single point] | ratio activity, negative = inhibition [9]: inconclusive: 6.54% | Potency [11]: inactive

CCN(CC)CCOC(=O)C(O)(c1ccccc1)c1ccccc1
Potency [12]: inconclusive: 0.952 µM [activator, single point] | Potency [6]: inactive | activation [13]: inconclusive: -0.048% | Potency [10]: inactive | Potency [11]: inconclusive: 34.7 µM [inhibitor, partial curve, poor fit]

CC1N=C(N)OC1c1ccccc1 (stereo unspecified)
Potency [12]: inactive | Potency [3]: inactive | Potency [4]: inconclusive: 21.4 µM [cytotoxic, single point] | Potency [8]: inconclusive: 26.7 µM [cytotoxic, single point] | ratio activity, negative = inhibition [9]: inconclusive: -1.8% [at 81.1 µM] | Potency [13]: inactive | Potency [14]: active: 9.81 µM

C[C@@]12C(=O)OC(=O)[C@]1(C)C1CCC2O1
Potency [1]: active: 1.6 µM

Fc1cc(Br)ccc1CBr
Potency [15]: inconclusive: 27.5 µM [inhibitor, partial curve, poor fit]

O=[N+]([O-])c1cc(Cl)c(Cl)cc1Cl
Potency [2]: inconclusive: 34.2 µM [activator, partial curve, poor fit] | Potency [5]: inactive | ratio activity, negative = inhibition [9]: inconclusive: -2.49% | Potency [13]: inconclusive: 2.72 µM [rising, full curve] | Potency [16]: inconclusive: 54.7 µM [rising, single point] | Potency [14]: inactive | Potency [10]: inconclusive: 56.1 µM [inhibitor, partial curve, poor fit] | Potency [15]: active: 5.61 µM

CCCCCBr
Potency [1]: inconclusive: 7.65 µM [activator, single point] | ratio activity, negative = MMP loss [2]: inconclusive: 27.7% [at 95.3 µM] | Potency [12]: inactive | Potency [7]: inactive | Potency [16]: inconclusive: 0.0613 µM [rising, full curve, poor fit]

O=C(O)C(Cl)(Cl)Br
ratio activity, negative = MMP loss [2]: inconclusive: -17.1% [at 95.3 µM] | Potency [3]: inactive | Potency [17]: inactive | Potency [8]: inactive | Potency [16]: inconclusive: 0.0493 µM [cytotoxic, full curve, poor fit] | Potency [14]: inconclusive: 80.1 µM [inhibitor, single point] | Potency [15]: inactive

CN(C)C1CCCCC1
Potency [2]: inconclusive: 60.6 µM [activator, partial curve] | Potency [6]: inconclusive: 6.8 µM [rising, single point] | Potency [7]: inconclusive: 54 µM [activator] | Potency [9]: inconclusive: 54.4 µM [single point] | Potency [13]: inactive | Potency [14]: inactive | Potency [11]: inactive | Potency [15]: inconclusive: 70.3 µM [inhibitor, partial curve, poor fit]

C[C@H](N)C(=O)c1ccccc1
Potency [2]: inactive | Potency [12]: inconclusive: 0.213 µM [activator, partial curve] | Potency [4]: inconclusive: 13 µM [rising, full curve] | Potency [7]: inactive | Potency [8]: inconclusive: 29.8 µM [rising, partial curve] | activation [18]: inconclusive: -10.6% [at 78.9 µM] | Potency [9]: inactive | Potency [11]: inconclusive: 42.2 µM [inhibitor, full curve, poor fit]
